We go through 2 molecules from PubChem BioAssay (NCI).

The test system of the assay is NCI-H322M lung. Nature of the assay: growth of human tumour cells (NCI), 48 h.

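Briefly, cells in 96-well plates were exposed to five compound concentrations for 48 h, and endpoints were estimated by linear interpolation. GI50: concentration for 50% inhibition of growth. At the TGI there is no net growth.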

As for `NC(=O)c1c(NC(=O)c2ccc(C(F)(F)F)cc2)sc2c1CCC(=O)C2`, the GI50 is 7.97 µM and the TGI is more than 78.4 µM.

Consider `CN1CCN(Cc2ccc(NC(=O)c3cncc(C#Cc4cnc5ccc(O[C@@H]6CCOC6)nn45)c3)cc2C(F)(F)F)CC1`, for which the GI50 is 0.214 µM and the TGI came to 0.915 µM.
